# Measured values published in PubChem BioAssay AID2451 (National Center for Advancing Translational Sciences (NCATS), 2010).
# Values joined by “and” are separate entries in the source; they are usually repeats but may differ in a detail not shown here. Equal entries are not always repeated. Hit rate of the full screen: of about 290,000 compounds, about 2,100 (0.72%) were called active. The inconclusive results got no clear call from the source; some entries with a clear call stand among them for comparison. Calls come from the whole dose curve; as a rule, active = well fitted inhibition curve with a large enough effect; inconclusive = small, poorly fitted or top-dose-only effect, or effect the other way; inactive = flat fitted curve, though single readings scatter. Potencies of inconclusive entries are doubtful fits and often do not repeat.
# Target: Fructose-bisphosphate aldolase (Giardia intestinalis (strain ATCC 50803 / WB clone C6)) (UniProt A8B2U2)
# Chain of UniProt A8B2U2 (A8B2U2 whole entry, looked up): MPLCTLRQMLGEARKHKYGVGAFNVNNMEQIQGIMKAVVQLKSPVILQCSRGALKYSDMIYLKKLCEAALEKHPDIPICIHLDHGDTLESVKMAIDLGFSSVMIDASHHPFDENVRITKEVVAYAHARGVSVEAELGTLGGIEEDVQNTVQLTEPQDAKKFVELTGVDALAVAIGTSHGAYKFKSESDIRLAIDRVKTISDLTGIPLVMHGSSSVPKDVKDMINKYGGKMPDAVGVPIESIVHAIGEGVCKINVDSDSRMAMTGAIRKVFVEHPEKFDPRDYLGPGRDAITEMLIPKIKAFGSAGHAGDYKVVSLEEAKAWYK
# Test: qHTS Assay for Inhibitors of Fructose-1,6-bisphosphate Aldolase from Giardia Lamblia; note: nearly all actives have a fitted effect of over 55% in size
# Details: purified Giardia FBPA; activity, negative = inhibition: at 59.6 µM (top of the series) unless noted
# Outline: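 Giardia FBPA (40 nM reagent) was preincubated 10 min at RT with compound (up to 57.5 uM final), then substrate plus GAPDH/TPI/NAD/arsenate coupling system with diaphorase/resazurin was added; resorufin fluorescence (525/598 nm) was read after 20 min.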
# % is set by controls: 0 for no effect and ±100 for the full control effect; potency is the fitted concentration of half-maximal effect; tags give direction and shape of the fitted curve.
Compound,Potency,"activity, negative = inhibition"
C/C(CC(=O)NCc1ccc(F)cc1)=N\NC(N)=S,"inconclusive: 17.7 µM [inhibitor, single point]",
O=C(NC(=S)N1CCN(C/C=C/c2ccccc2)CC1)c1cccnc1,active: 11.2 µM,
C[N+](C)(C)CCNC(=O)c1cc[n+](Cc2ccccc2)c(/C=N/O)c1,"inconclusive: 15.8 µM [inhibitor, partial curve]",
C[C@H]1c2cccc(O)c2C(O)=C2C(=O)[C@]3(O)C(O)=C(C(N)=O)C(=O)[C@@H](N(C)C)[C@@H]3[C@@H](O)[C@@H]21,"inconclusive: 7.92 µM [inhibitor, partial curve] and inconclusive: 11.2 µM [inhibitor, partial curve]",
CC(C)c1cc2c(c(O)c1O)[C@@]1(C(=O)O)CCCC(C)(C)[C@@H]1CC2,active: 9.98 µM,
CN1CCN(c2ccc(Cl)cc2NC(=O)CCN2C(=O)c3ccccc3C2=O)CC1,,inactive: -5.08%
O=C1C(=O)N(c2cccc(Cl)c2)C(c2ccccc2[N+](=O)[O-])/C1=C(\O)c1ccccc1 (stereo unspecified),"inconclusive: 25.1 µM [inhibitor, single point]",
CC(=O)Nc1cccc(/C(C)=N/NC(N)=S)c1,active: 17.7 µM,
Cc1csc(SCC(=O)Nc2cc(S(=O)(=O)N3CCCC3)ccc2Cl)n1,,inactive: -1.63%
Clc1cc(NCc2cccs2)ccc1N1CCOCC1,"inconclusive: 35.5 µM [inhibitor, single point]",
Cn1c(=O)c2c(SCC(N)=O)nc(CC(C)(C)C)nc2n(C)c1=O,"inconclusive: 7.92 µM [activator, single point]",
Cc1cccc(NC2=C(NC(=O)c3ccccc3)C(=O)c3ccccc3C2=O)c1,"inconclusive: 1.26 µM [inhibitor, full curve]",
O=c1cc(-c2cccc(O)c2)oc2c(O)c(O)ccc12,"inconclusive: 19.9 µM [inhibitor, partial curve]",
CCc1ccc(-c2cc(-c3n[nH]c(=S)n3CC)c3ccccc3n2)cc1,"inconclusive: 19.9 µM [activator, single point]",
CCOC(=O)C1(CCC(C)C)CC(CSc2nc3ccccc3[nH]2)OC1=O (stereo unspecified),"inconclusive: 35.4 µM [inhibitor, single point]",
Cc1ccc2[nH]c(=O)c(C(c3nnnn3Cc3ccccc3)N3CCc4ccccc43)cc2c1 (stereo unspecified),"inconclusive: 17.7 µM [inhibitor, partial curve]",
COc1cccc(CCNCc2cccc(C(F)(F)F)c2)c1,"inconclusive: 19.9 µM [inhibitor, partial curve]",
COc1ccc(OC)c(S(=O)(=O)N/N=C\c2c[nH]c3ccccc23)c1,,inactive: -10.4%
CCCC[n+]1ccn(C2=C([O-])c3ccccc3C(=O)/C2=N\S(=O)(=O)c2ccc(Br)cc2)c1,"inconclusive: 0.316 µM [inhibitor, full curve]",
COc1cccc(N=C(N)N=C(N)N)c1,,inactive: 8.88%
C=CCc1ccccc1OCC(O)CNC(C)C (stereo unspecified),inactive,
CN=c1scc(-c2cccs2)n1/N=C/c1ccc(O)c(O)c1O,"inconclusive: 8.89 µM [inhibitor, partial curve]",
CCOC(=O)Cc1cc(=O)n2[nH]c(C)cc2n1,"inconclusive: 17.7 µM [inhibitor, partial curve]",
CCC(C)NC(=O)c1c(N)n(CCCOC)c2nc3ccccc3nc12 (stereo unspecified),"inconclusive: 14.1 µM [inhibitor, partial curve]",

Compound,Potency,"activity, negative = inhibition"
C/C(=N\NC(=O)c1ccc(-c2ccccc2)cc1)c1ccco1,,inactive: -0.607%
O=c1c2[nH]c3ccc(F)cc3c2ncn1CCN1CCOCC1,,inactive: 0.394%
O=C(NC(=S)Nc1cccnc1Cl)c1ccc(F)cc1,active: 14.1 µM,
CCn1c(C)nc2cc(N)ccc21,"inconclusive: 19.9 µM [inhibitor, single point]",
N#CC1=C(N)n2c(s/c(=C\c3cccs3)c2=O)=C(C#N)C1c1cccs1 (stereo unspecified),,inactive: -18.8%
CCC(C)c1ccccc1OCCCN(C)Cc1ccccc1 (stereo unspecified),"inconclusive: 22.4 µM [inhibitor, single point]",
COc1ccc2[nH]cc(CCNc3ncncc3-c3ccc4c(c3)OCO4)c2c1,,inactive: -20.9%
Cc1ccccc1C(=O)NC(=S)Nc1ncccn1,active: 4.47 µM,
N#CC(C#SN)=C1CCCCC1,"inconclusive: 25.1 µM [inhibitor, partial curve]",
Cc1ccc(NC(=O)C(NC2CCCc3ccccc32)c2ccccc2)cc1Cl (stereo unspecified),"inconclusive: 15.8 µM [inhibitor, partial curve]",
COc1cc(C(=O)NC(=S)Nc2ccc(Cl)cn2)cc(OC)c1OC,active: 10 µM,
O=C(Nc1ccc2c(c1)nc1n2CCN(Cc2ccccc2)C1)NC1CCCCC1,"inconclusive: 7.06 µM [inhibitor, full curve]",
Cn1ncc(C(N)=O)c1NC(=S)NC(=O)c1ccc(Br)o1,active: 15.8 µM,
NNc1nc2sc3c(c2c(=O)n1-c1ccccc1)CCCC3,"inconclusive: 19.9 µM [inhibitor, partial curve]",
CC(C)C[C@H](NC(=O)[C@H](Cc1ccccc1)NC(=O)CNC(=O)CNC(=O)[C@@H](N)Cc1ccc(O)cc1)C(=O)N[C@@H](CCCN=C(N)N)C(=O)N[C@@H](CCCN=C(N)N)C(=O)N[C@@H](CCC(N)=O)C(=O)N[C@@H](Cc1ccccc1)C(=O)N[C@@H](CCCCN)C(=O)N[C@H](C(=O)N[C@H](C(=O)N[C@H](C(=O)O)[C@@H](C)O)C(C)C)C(C)C,,inactive: 9.13%
Nc1ccc2nc(Cc3ccccc3)[nH]c2c1,active: 15.8 µM,
C=CC(C1=CC(=O)C(OC)=CC1=O)c1ccc(O)cc1 (stereo unspecified),"inconclusive: 15.8 µM [inhibitor, partial curve]",
CCOc1c(Br)cc(/C=C2\C(=O)N(CCC#N)N=C2C)cc1OC,"inconclusive: 7.06 µM [inhibitor, single point]",
Cc1ccc(SCCCCN2CCNCC2)cc1,"inconclusive: 19.9 µM [inhibitor, single point]",
CC1=CC(C)(C)N(C(=O)CNC2CCCCC2)c2cc(C)ccc21,"inconclusive: 7.06 µM [inhibitor, partial curve]",
CCOC(=O)Cc1csc(NC(=O)NC2(C(F)(F)F)Oc3ccc(Cl)cc3O2)n1 (stereo unspecified),"inconclusive: 19.9 µM [inhibitor, partial curve]",
Cc1ccc2nc(Cl)c(/C=N/Nc3ccc(C(=O)O)cc3)cc2c1,"inconclusive: 15.8 µM [inhibitor, partial curve]",
Cc1cc(C)c2c(NC(=S)NC(=O)c3ccccc3)nn(C)c2n1,active: 17.7 µM,
Cc1cccc2cc(C(c3nnnn3CC3CCCO3)N3CCc4ccccc4C3)c(=O)[nH]c12 (stereo unspecified),"inconclusive: 14.1 µM [inhibitor, partial curve]",

Compound,Potency,"activity, negative = inhibition"
CC1(C)CC2CC(C)(CN2CC(O)c2ccccc2)C1 (stereo unspecified),"inconclusive: 15.8 µM [inhibitor, partial curve]",
CCCOc1ccc([N+](=O)[O-])c(N)c1,,inactive: -3.79%
COc1ccccc1-c1ccc(SCC(=O)NCc2ccc3c(c2)OCO3)nn1,"inconclusive: 19.9 µM [inhibitor, single point]",
CCC(=O)N(CC)C1=C(O)c2ccccc2C(=O)C1=O,active: 7.92 µM,
O=C(N/N=C/c1ccccc1[N+](=O)[O-])c1cnccn1,,inactive: -18%
O=[N+]([O-])c1ccc(S(=O)(=O)N/N=C/c2ccc3c(c2)OCO3)cc1,"inconclusive: 15.8 µM [inhibitor, partial curve]",
COCCCNCC#CCOc1ccc(OC)cc1,"inconclusive: 17.7 µM [inhibitor, partial curve]",
O=C(CN1CCN(c2cccc(C(F)(F)F)c2)CC1)Nc1cccc(C(F)(F)F)c1,"inconclusive: 35.4 µM [inhibitor, single point]",
Cc1ccc(/C=c2\sc3n(c2=O)CN(c2ccc(Br)cc2)CN=3)o1,"inconclusive: 11.2 µM [inhibitor, partial curve]",
CC1=NC(=O)C(N=Nc2cccc(C(=O)O)c2)N1c1ccccc1 (stereo unspecified),,inactive: -11.8%
COc1cc(OC)cc(C(=O)N2CCN(Cc3ccccc3[N+](=O)[O-])CC2)c1,active: 17.7 µM,
CCc1ccc(/C=C2\CN(CC)Cc3c2nc2ccccc2c3C(=O)O)cc1,"inconclusive: 2.23 µM [inhibitor, full curve]",
COc1ccc(C(=O)N=c2sc3ccccc3n2C)cc1,,inactive: -28.6%
COc1ccc(C(C)(C)C)cc1NC(=O)COC(=O)c1ccc([N+](=O)[O-])o1,"inconclusive: 15.8 µM [inhibitor, single point]",
COc1ccc(Nc2ncc(C#N)c(N)n2)c(OC)c1,,inactive: -3.4%
CC(CN1CCCCC1)OC(=O)c1ccco1 (stereo unspecified),,inactive: -18.3%
COCc1cc(=O)n2[nH]c(C)c(-c3ccccc3)c2n1,"inconclusive: 15.8 µM [inhibitor, partial curve]",
Clc1ccc(CN2CCc3c([nH]c4ccccc34)C2)cc1Cl,"inconclusive: 31.6 µM [inhibitor, partial curve]",
CCOC(=O)c1c(C)n(C)c2ccc(O)c(CN3CCN(C)CC3)c12,"inconclusive: 15.8 µM [inhibitor, single point]",
COc1ccc(N2C(=O)CCC(C(=O)NCc3ccccn3)C2c2ccc(OC)c(OC)c2)cc1 (stereo unspecified),,inactive: 5.78%
C=CCNC(=S)NCCO,"inconclusive: 12.6 µM [inhibitor, partial curve]",
CCCN(CC(=O)Nc1cccc(S(N)(=O)=O)c1)CC(=O)Nc1ccc(F)c(F)c1F,,inactive: -7.32%
COc1ccc(S(=O)(=O)NNC(=O)C(=O)NNc2ccccn2)cc1,"inconclusive: 2.81 µM [inhibitor, partial curve]",
